These results are taken from publication PMC4336329 (PLoS ONE, 2015).

About 2,200 (0.71%) of roughly 310,000 compounds showed an effect of 50% or more. The effect is printed as a negative number. This is one part of the list.

The target in the assay is human ether-à-go-go-related gene (hERG) potassium channel (human, UniProt Q12809). Put plainly: primary screen, population patch clamp on CHO cells stably expressing hERG.
Sequence of human ether-à-go-go-related gene (hERG) potassium channel (Q12809 whole entry, looked up): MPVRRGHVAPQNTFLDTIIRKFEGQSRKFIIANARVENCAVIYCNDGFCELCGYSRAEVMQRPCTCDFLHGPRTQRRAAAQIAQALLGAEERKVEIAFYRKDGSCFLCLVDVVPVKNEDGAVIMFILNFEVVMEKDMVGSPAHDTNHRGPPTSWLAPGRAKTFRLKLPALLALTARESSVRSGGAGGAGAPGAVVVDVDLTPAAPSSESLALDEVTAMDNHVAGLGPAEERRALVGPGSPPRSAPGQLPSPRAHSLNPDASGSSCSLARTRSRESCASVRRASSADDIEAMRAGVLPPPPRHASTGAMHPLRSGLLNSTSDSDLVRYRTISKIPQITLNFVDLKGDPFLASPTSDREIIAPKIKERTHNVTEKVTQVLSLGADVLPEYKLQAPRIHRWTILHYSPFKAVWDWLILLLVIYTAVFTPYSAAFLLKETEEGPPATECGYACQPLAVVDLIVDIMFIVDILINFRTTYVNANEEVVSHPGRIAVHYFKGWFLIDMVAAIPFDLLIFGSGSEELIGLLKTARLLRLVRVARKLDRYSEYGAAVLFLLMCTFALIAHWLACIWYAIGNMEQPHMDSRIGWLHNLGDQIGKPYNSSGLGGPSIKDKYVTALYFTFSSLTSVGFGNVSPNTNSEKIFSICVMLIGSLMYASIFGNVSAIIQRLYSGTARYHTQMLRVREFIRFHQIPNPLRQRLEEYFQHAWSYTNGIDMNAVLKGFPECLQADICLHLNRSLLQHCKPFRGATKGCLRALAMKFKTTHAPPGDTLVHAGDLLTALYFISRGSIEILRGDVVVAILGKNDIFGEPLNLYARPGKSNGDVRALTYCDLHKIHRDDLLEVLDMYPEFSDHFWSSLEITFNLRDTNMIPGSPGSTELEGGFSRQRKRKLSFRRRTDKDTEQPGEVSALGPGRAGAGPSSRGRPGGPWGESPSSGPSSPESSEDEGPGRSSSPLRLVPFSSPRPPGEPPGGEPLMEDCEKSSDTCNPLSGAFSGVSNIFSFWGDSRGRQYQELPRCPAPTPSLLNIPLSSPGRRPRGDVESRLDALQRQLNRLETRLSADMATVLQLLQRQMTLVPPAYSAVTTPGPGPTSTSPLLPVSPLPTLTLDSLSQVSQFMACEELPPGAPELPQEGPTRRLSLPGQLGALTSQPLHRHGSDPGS
In the case of `COC(=O)c1c(NC(=O)CS(=O)(=O)c2ccccc2)sc(C)c1C`, the “hERG current change (%, negative = inhibition) at 1uM” value is on record as 8.57%.
As for `CCCN(C(=O)c1c(CC)noc1C)c1c(N)n(Cc2ccccc2)c(=O)[nH]c1=O`, the figure is -5.22%.
Take `F[B-](F)(F)F.OCCC[NH+]=c1cc(-c2ccccc2)oc2ccc(Cl)cc12`: the “hERG current change (%, negative = inhibition) at 1uM” value is -78%.
Consider `CCOC(=O)C1=C(CN2CCOCC2)NC(=O)NC1c1cccc([N+](=O)[O-])c1` (stereo not drawn), for which the “hERG current change (%, negative = inhibition) at 1uM” value was -2.84%.
The value for `CC1CCN(c2ncnc3ccccc23)CC1.Cl` was -12.3%; that for `C=CCNC(=O)CSc1nnc(-c2cccs2)o1` was 6.22%.
The value for `O=C(O)CSc1nc(-c2ccc(Cl)cc2)nc2c1oc1ccccc12` was 4.81%.
The value for `Cc1cc(C(=O)CN2C(=O)CCC2=O)c(C)n1Cc1ccccc1` was 1.09%.
Take `COc1cccc(CNC(=O)C2CCCN(c3nn4c(=O)cc(C)nc4s3)C2)c1OC` (stereo not drawn): the “hERG current change (%, negative = inhibition) at 1uM” value came out at 12.3%.
As for `Cc1ccc2nc(NNC(=O)c3ccc4c(c3)OCCO4)sc2c1`, the figure is 13.2%; as for `COCCOc1ccc(C(F)(F)F)cc1NC(=O)CN1C(=O)NC(C)(c2ccc3c(c2)OCO3)C1=O` (stereo not drawn), 12.9%.
For the compound `NC(=O)COC(=O)C1c2ccccc2Oc2ccccc21`, the “hERG current change (%, negative = inhibition) at 1uM” value is on record as 1.95%.
As for `CCCCN(C)c1ccc([N+](=O)[O-])cc1`, the figure is 15.8%.
For `COC(=O)c1ccc(NC(=S)NCCC2=CCCCC2)cc1`, the “hERG current change (%, negative = inhibition) at 1uM” value is on record as 6.38%.
As for `C/C(=N\NC(=O)c1cc2c(s1)CCC(C)C2)c1ccc[nH]1` (stereo not drawn), the figure is 11.3%; as for `O=C(NNc1c(Cl)cccc1Cl)c1c(F)cccc1Cl`, 16.1%.
As for `O=C(Nc1nc2ccccc2c2nc3ccccc3n12)c1ccc(F)cc1`, the figure is 13.5%; as for `CCc1ccc(OC)c(S(=O)(=O)N2CCN(C(=O)c3ccco3)CC2)c1`, 11.7%.
As for `COc1cc(NC(=O)c2cccnc2)ccc1-c1cc2ccccc2oc1=O`, the figure is 6.97%; as for `Nc1nonc1-n1nnc(C(=O)N/N=C/C2CC=CCC2)c1CSc1ccccc1` (stereo not drawn), 6.46%; as for `COc1ccc(C(C)(C)C)cc1NC(=O)COC(=O)c1ccc([N+](=O)[O-])o1`, 13.3%.
As to `CN1C(=O)N(CC(=O)NCc2ccc(Cl)cc2Cl)C(=O)C12CCCCC2`, the “hERG current change (%, negative = inhibition) at 1uM” value is reported as 7.43%.
For `COc1ccc(-c2ccc([C@H]3[C@@H]4C=CCC[C@@]4(C)C(=O)N3Cc3ccccc3)c(F)c2)cc1`, the “hERG current change (%, negative = inhibition) at 1uM” value is listed as 11.4%.
As for `CCN(CC)C(=S)Nc1ccc([N+](=O)[O-])cc1`, the figure is 6.63%; as for `CCOC(=O)C(=O)/C(C#N)=C/Nc1ccccc1`, 12.1%; as for `CCCS(=O)(=O)c1nc(S(=O)(=O)c2ccc(C)cc2)c(NCc2ccccn2)s1`, 8.9%.
As for `COC(=O)c1ccc([C@@H](O)[C@H](C)C(=O)CC(=O)OC(C)(C)C)cc1`, the figure is 6.21%; as for `Cc1ccc2nc(C)cc(N/N=C/c3cccc(O)c3)c2c1`, 12.7%.
As to `O=C(C1CCN(S(=O)(=O)c2cc(Cl)ccc2Cl)CC1)N1CCOCC1`, the “hERG current change (%, negative = inhibition) at 1uM” value is reported as 10.7%.
For `O=C(Cn1cc([N+](=O)[O-])ccc1=O)NCc1ccc(Cl)cc1Cl`, the “hERG current change (%, negative = inhibition) at 1uM” value is listed as 1.3%.
The value for `CCOc1ccc(C(=O)NCc2ccccn2)cc1` was 15.5%; that for `COc1ccc(-c2cc(C(=O)O)no2)cc1` was 18.6%; that for `CC(=O)Nc1cccc(/C(C)=N/NC(=O)c2ccccc2Cl)c1` was 13.5%.
For `COc1ccc(S(=O)(=O)/C(C#N)=C/Nc2ccc(NC(C)=O)cc2)cc1`, the “hERG current change (%, negative = inhibition) at 1uM” value was determined as 14.7%.
As for `C=CCNC(=S)N1CCN(CCN=CC2=C(O)CC(c3ccco3)CC2=O)CC1` (stereo not drawn), the “hERG current change (%, negative = inhibition) at 1uM” value is recorded as -4.9%.
As for `O=C(Cn1nnc2ccccc21)Nc1ccc(Cl)cn1`, the figure is 7.08%.
The value for `O=C(CCl)NC(=O)NC12CC3CC(CC(C3)C1)C2` was 9.11%; that for `COCCCNC(=O)/C(C#N)=C/c1c(N2CCN(c3cccc(Cl)c3)CC2)nc2c(C)cccn2c1=O` was 8.9%.
Take `O=C1c2ccccc2C(=O)c2c1cccc2-n1nnc2ccccc21`: the “hERG current change (%, negative = inhibition) at 1uM” value is recorded as 8.53%.
The value for `Cc1ccc(-c2cccc(CN3CCN(C(C)C)C(CCO)C3)c2)o1` (stereo not drawn) was 16.8%; that for `COc1ccc2c(c1)CCc1c(C(=O)NCc3ccc(Cl)cc3)noc1-2` was 15.2%.
On to `Cc1ccccc1NC(=O)CCCCC(=O)Nc1ccccc1C`, for which the “hERG current change (%, negative = inhibition) at 1uM” value worked out at 12.7%.
Turning to `CCC(=O)OC1(C)C(=O)C=C2C=C(c3ccsc3)OC=C2C1=O` (stereo not drawn), the “hERG current change (%, negative = inhibition) at 1uM” value is reported as 9.93%.
As for `Cc1cc(CN2CCN(CC(=O)Nc3cc(C(F)(F)F)ccc3-n3cncn3)CC2)no1`, the figure is -36.4%; as for `C=C(C)CSc1nc2ncccc2[nH]1`, 5.54%.
As for `COc1cc(C=C(C(C)=O)C(C)=O)ccc1O`, the figure is 18.1%; as for `COC(=O)c1cc2occc2n1Cc1nc(-c2ccc(Cl)cc2)oc1C`, 11.2%.
As for `COc1ccc(-c2cc(C(=O)Nc3sc4c(c3C#N)CCCC4)c3ccccc3n2)cc1`, the “hERG current change (%, negative = inhibition) at 1uM” value is recorded as 2.84%.
As for `CCOc1ccccc1NC(=O)CNC(=O)CNC(=O)Cc1ccccc1`, the figure is 13.2%; as for `COCCNC(=O)c1cc2nc3c(c(C(F)(F)F)n2n1)CCc1ccccc1-3`, 18.6%.
The value for `COc1ccc(-n2c(O)c(C(C)=NCCN3CCNCC3)c(=O)[nH]c2=O)cc1` was 7.61%.
The value for `Cc1ccc(Oc2ccccc2/C=C2\SC(=O)N(C)C2=O)cc1` was 11.1%.
In the case of `Cc1c(C(=O)N2CCOCC2)c(S(=O)(=O)Nc2ccccc2F)c(C)n1C`, the “hERG current change (%, negative = inhibition) at 1uM” value was 5.33%.
For `CN(CC(=O)Nc1ccc(Cl)c(S(=O)(=O)N(C)C)c1)Cc1ccccc1`, the “hERG current change (%, negative = inhibition) at 1uM” value is on record as 7.43%.
As for `COc1cc(C(C)=O)ccc1OCC(O)Cn1nc(C)c(Br)c1C` (stereo not drawn), the figure is 9.12%; as for `O=C1Cc2cc(NS(=O)(=O)c3cc(F)ccc3F)cc3c2N1CCC3`, 9.19%.
As for `CN1C(=S)SC(/[N+]([O-])=C/c2c(F)cccc2Cl)C1(C)C` (stereo not drawn), the figure is 16.2%; as for `CC1(C)CC(=O)C2=C(C1)Nc1ccccc1NC2c1nc2ccccc2[nH]1` (stereo not drawn), 10.2%; as for `CCC(NC(=O)Nc1ccc(O)cc1)(C(F)(F)F)C(F)(F)F`, 15.2%.
In the case of `N#CCCN(Cc1cccs1)C(=O)Nc1ccc(F)cc1`, the “hERG current change (%, negative = inhibition) at 1uM” value came to 5.92%.
The value for `Cc1ccc(C(=O)O/N=C2/CC3CCC2(C)[C@@]3(C)CBr)cc1` (stereo partly drawn) was 13.3%.
The value for `O=C1c2ccccc2C(=O)N1CCOCCN1C(=O)c2ccccc2C1=O` was 5.55%.
As for `Cc1ccc(NC(=S)Nc2cc(C(=O)O)ccc2N2CC3CC(C2)c2cccc(=O)n2C3)cc1C` (stereo not drawn), the figure is 4.92%.
As for `COc1ccc(NC(=O)CNC(=O)Cn2cnc3sc4c(c3c2=O)CCCC4)cc1OC`, the “hERG current change (%, negative = inhibition) at 1uM” value came to 18.9%.
The value for `CCC(=O)Nc1sc2c(c1C(=O)OC)CCN(Cc1ccccc1)C2.Cl` was -24.3%; that for `CC(c1ccco1)N(C(=O)c1cccc(S(=O)(=O)N(C)C)c1)c1ccccn1` (stereo not drawn) was 17.8%.
As for `CN1CCN(S(=O)(=O)c2ccc(NC(=O)Cc3ccc([N+](=O)[O-])cc3)cc2)CC1`, the figure is 15.4%.
As for `O=C(CN1c2ccccc2Sc2ccccc21)N/N=C/c1ccc([N+](=O)[O-])cc1`, the figure is 12.5%; as for `Cc1ccccc1NC(=S)N(CCCN1CCCCC1)Cc1ccco1`, -2.67%; as for `COc1ccc(CNS(=O)(=O)c2ccc3oc(C(=O)O)c(C)c3c2)cc1`, 5.85%.
Take `CCCc1c(O)nc(SCc2ccccc2)[nH]c1=O`: the “hERG current change (%, negative = inhibition) at 1uM” value was determined as 2.62%.
As for `CCCCCn1c(SCC(=O)CC(=O)OCC)nc2cc(C(=O)N3CCC(C(N)=O)CC3)ccc2c1=O`, the figure is 10.6%; as for `CN(C)C(=O)CSc1nnc([C@@H](N)Cc2ccccc2)o1.Cl`, 2.69%; as for `Cn1c(SCc2ccc(Cl)cc2)nc(C(F)(F)F)cc1=O`, 24.5%.
`CC[NH+](CC)CC.Nc1ncnc2c1ncn2C1OC(COP(=O)([O-])O)C(O)C1O` (stereo not drawn): the “hERG current change (%, negative = inhibition) at 1uM” value is given as 24%.
As for `Cc1ccc(C)c(OCc2nnc(NC(=O)c3ccco3)s2)c1`, the figure is 5.43%; as for `Cc1cccc(C(=O)NC(=S)Nc2cccc3nc(C)ccc23)c1`, 8.01%.
`O=C(CSc1nnc2ccccn12)NCCc1ccc(F)cc1`: the “hERG current change (%, negative = inhibition) at 1uM” value is 2.54%.
The value for `OCCNc1nc(NCCC2=CCCCC2)nc(N2CCOCC2)n1` was -1.67%; that for `CCn1c2ccc(F)cc2c2nnc(SCCN3CCOCC3)nc21` was -20.9%.
Consider `COc1cccc(CNCC(O)COc2ccc(C(=O)c3ccccc3)cc2)c1` (stereo not drawn), for which the “hERG current change (%, negative = inhibition) at 1uM” value is listed as 9.92%.
In the case of `CCCCC(=O)NCCNc1nc2c(c(=O)n(C)c(=O)n2C)n1Cc1ccc(F)cc1`, the “hERG current change (%, negative = inhibition) at 1uM” value was determined as 10.7%.
Regarding `Cc1ccc(CN2CCN(/N=C/c3cccn3C)CC2)c(C)c1`, the “hERG current change (%, negative = inhibition) at 1uM” value came out at 13.9%.
As for `Cc1ccccc1N=C1SCCN1C(=O)CN1C(=O)NC2(CCCC2)C1=O`, the figure is 0.16%; as for `C/C1=C\CCC2C(/C=C(\C)CC1)OC(=O)C2CN1CCCCC1` (stereo not drawn), 12.9%; as for `CCN(CC)c1ccc(/C=N/NC(=O)CNC(=O)/C=C/c2ccco2)cc1`, 4.77%.
The value for `CC1(C)Cc2c(cnn2-c2ccc(F)cc2)C(NC(=O)C(C)(C)O)C1` (stereo not drawn) was 12.6%.
